Among all 48,000 compounds or so, about 550 (1.1%) were called active. Another 4% or so got no clear call; they are omitted. Cut-off read from the data, not from the text of the source: active = potency below about 15 µM; inconclusive = mostly about 16 µM to 33 µM; inactive = weaker than that. This is one part of the list.
Potency is the fitted concentration of half-maximal effect.

For this experiment, the target named is Lysosomal acid glucosylceramidase (Homo sapiens) (UniProt P04062). The experiment is described as follows: Glucocerebrosidase.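 Note: the screen sought inhibitors.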 The note with it: purified enzyme, resorufin glucoside fluorescence (screen aimed at inhibitors), 20 min. In a few lines: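 Compounds titrated against 0.2 nM normal enzyme, 30 uM resorufin beta-D-glucopyranoside substrate, citrate/phosphate buffer with taurocholate and tween-20, pH 5.9. Reaction ran 20 min at room temperature; fluorescence (Ex 548/Em 600) gave AC50.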
UniProt P04062, sequence (P04062 whole entry, looked up): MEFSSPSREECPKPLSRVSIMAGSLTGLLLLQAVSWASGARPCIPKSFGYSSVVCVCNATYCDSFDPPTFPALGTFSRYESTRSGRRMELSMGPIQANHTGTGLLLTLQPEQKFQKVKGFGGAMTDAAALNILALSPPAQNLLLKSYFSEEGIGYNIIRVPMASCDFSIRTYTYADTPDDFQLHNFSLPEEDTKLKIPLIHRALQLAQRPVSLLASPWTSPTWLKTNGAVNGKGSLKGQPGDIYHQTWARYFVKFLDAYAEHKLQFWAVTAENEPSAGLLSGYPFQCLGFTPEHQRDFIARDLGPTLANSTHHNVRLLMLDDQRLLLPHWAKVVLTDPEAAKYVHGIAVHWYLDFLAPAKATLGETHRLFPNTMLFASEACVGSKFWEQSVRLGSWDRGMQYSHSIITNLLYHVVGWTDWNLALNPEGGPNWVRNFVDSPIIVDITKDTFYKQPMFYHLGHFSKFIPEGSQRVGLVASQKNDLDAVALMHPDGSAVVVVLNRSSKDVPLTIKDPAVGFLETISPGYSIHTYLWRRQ
For `O=C(CCn1c(=O)oc2ccccc21)NCCCN1CCN(c2ccc(F)cc2)CC1`, the Potency is inactive: > 76.9 µM.

As for `Cc1ccc(Oc2nc3ccccc3n3c(C)nnc23)cc1`, the Potency is inactive: > 76.9 µM.

On to `CN(C(=O)COc1ccccc1)c1nnc(-c2cccnc2)s1`, for which the Potency was inactive: > 76.9 µM.

`O=C(Cc1ccc(S(=O)(=O)N2CCOCC2)s1)Nc1ccc2c(c1)CCC2`: the Potency is inactive: > 76.9 µM.

Take `C=CCN1C(=O)C2C(C(=O)NC3CCCCC3)C3C=CC2(O3)C1C(=O)NC1CCCC1` (configuration not stated): the Potency was inactive: > 76.9 µM.

Regarding `C=CCn1c(SCC2=C(C(=O)OCC)C(C)NC(=O)N2)nnc1C1CCCCC1` (configuration not stated), the Potency is inactive: > 76.9 µM.

As for `CCOc1ccc(OCC)c(NC(=O)C2C3C=CC(O3)C2C(=O)NCc2ccco2)c1` (configuration not stated), the Potency was inactive: > 76.9 µM.

Take `CCn1c(=O)c(=O)n(CC)c2cc(S(=O)(=O)Nc3cccc(OC)c3)ccc21`: the Potency was inactive: > 76.9 µM.

With `COc1ccc(NC(=O)C(C)NS(=O)(=O)c2ccccc2)cc1Cl` (configuration not stated), the Potency was inactive: > 76.9 µM.

Take `Nc1nc(-c2ccco2)cs1`: the Potency was inactive: > 76.9 µM.

As to `COc1cc(NC(=O)CSc2nnc(C)s2)cc(OC)c1OC`, the Potency is inactive: > 76.9 µM.

In the case of `Cc1noc(/C=C/N(C)C)c1S(=O)(=O)N(C)CC(=O)NC1CCCCC1`, the Potency was inactive: > 76.9 µM.

For `O=C1CN(C(=O)COC(=O)C23CC4CC(CC(O)(C4)C2)C3)c2ccccc2N1`, the Potency is inactive: > 76.9 µM.

As for `Cc1cccc(-c2c3c(=O)n(C)c(=O)n(C)c3cn2CC2CCCO2)c1` (configuration not stated), the Potency was inactive: > 76.9 µM.

Consider `CC(C)Cn1nc(NC(=O)C2CCCO2)c2cc3ccccc3nc21` (configuration not stated), for which the Potency is inactive: > 76.9 µM.

Regarding `CN(C(=O)COC(=O)CNS(=O)(=O)/C=C/c1ccccc1)C1CCS(=O)(=O)C1` (configuration not stated), the Potency is inactive: > 76.9 µM.

For the compound `CCN(CC)CC(=O)c1ccc(-c2ccccc2)cc1`, the Potency is inactive: > 76.9 µM.

In the case of `CCOC(=O)Cc1csc(NC(=O)c2ccc3c(c2)OCO3)n1`, the Potency was inactive: > 76.9 µM.

For the compound `COc1cc(OC)cc(C(=O)NC2CCN(Cc3nnnn3Cc3cccs3)CC2)c1`, the Potency was inactive: > 76.9 µM.

Take `CCOC(=O)CSc1nnc(-c2ccncc2)o1`: the Potency is inactive: > 76.9 µM.

Turning to `CCOC(=O)c1nn(-c2cc(C(=O)OC)cc(C(=O)OC)c2)cc1O`, the Potency is inactive: > 76.9 µM.

In the case of `O=C(O)C1CC=CCC1C(=O)Nc1ccc(F)c(F)c1` (configuration not stated), the Potency is inactive: > 76.9 µM.

Take `C=CCn1c(NC(=O)c2ccc(Br)o2)c(C(=O)OCC)sc1=S`: the Potency is inactive: > 76.9 µM.

Turning to `O=C(c1ccncc1)N(Cc1cc2ccccc2[nH]c1=O)C1CCCCC1`, the Potency was inactive: > 76.9 µM.

Turning to `N#CC1=C(N)Oc2cc(N)ccc2C1C1CC=CCC1` (configuration not stated), the Potency is inactive: > 76.9 µM.

As for `COc1ccc(C(=O)Nc2cc(Cl)ccc2Cl)c(OC)n1`, the Potency was inactive: > 76.9 µM.

Regarding `NC(=O)Cn1nnc(-c2ccc(C(F)(F)F)cc2)n1`, the Potency is inactive: > 76.9 µM.

Take `CC(C)Cc1ccc(C(C)C(=O)N2CCOCC2)cc1` (configuration not stated): the Potency is inactive: > 76.9 µM.

As for `CCCCOC(=O)c1ccc(OC(=O)c2cccnc2)cc1`, the Potency was inactive: > 76.9 µM.

With `c1ccc(Cn2ncc3c2ncn2c(-c4ccncc4)nnc32)cc1`, the Potency is inactive: > 76.9 µM.

For `COCCCNC(=O)Cn1nc(-c2ccc(C)cc2)ccc1=O`, the Potency is inactive: > 76.9 µM.

On to `COc1ccc(-n2c(=O)cc(N3CC(C)OC(C)C3)[nH]c2=O)cc1` (configuration not stated), for which the Potency is inactive: > 76.9 µM.

As to `CCCc1nc2ccccc2c(=O)n1-c1c(C)n(C)n(-c2ccccc2)c1=O`, the Potency is inactive: > 76.9 µM.

As for `COc1ccc2[nH]c3c(c2c1)CCn1c-3nc2ccccc2c1=O`, the Potency was inactive: > 76.9 µM.

As to `Nn1c(SCc2nc3ccccc3[nH]2)nnc1C1CCCCC1`, the Potency was inactive: > 76.9 µM.

Regarding `COc1ccc(-c2cn3cccnc3n2)cc1NC(=O)C1CC1`, the Potency is inactive: > 76.9 µM.

As for `O=C(Nc1nnc(C2CCCCC2)s1)c1cccs1`, the Potency was inactive: > 76.9 µM.

As to `COc1cc(OC)c(-c2nn3c(-c4ccncc4)nnc3s2)cc1OC`, the Potency is inactive: > 76.9 µM.

Regarding `COc1ccc(C(=O)Nc2nc(-c3cccs3)cs2)cc1`, the Potency is inactive: > 76.9 µM.

As to `O=C(O)c1cccc(C(=O)O)n1`, the Potency is inactive: > 76.9 µM.

Regarding `O=C(CN1CCC(O)(c2ccccc2F)CC1)NCCc1c[nH]c2ccccc12`, the Potency was inactive: > 76.9 µM.

As to `Cc1ccc(C)c(C(=O)CC2(O)C(=O)Nc3ccccc32)c1` (configuration not stated), the Potency was inactive: > 76.9 µM.

`Cc1nc2ccccc2c(=O)n1NC(=O)Nc1ccccc1`: the Potency was inactive: > 76.9 µM.

In the case of `COc1ccc(CNC(=O)CCc2nc(-c3ccccc3F)no2)c(OC)c1`, the Potency was inactive: > 76.9 µM.

Consider `COC(=O)C(C(=O)N1CCN(C)CC1)C1CCCCCC1` (configuration not stated), for which the Potency was inactive: > 76.9 µM.

As to `COC(=O)C1(CCSC)NC(c2ccc(O)cc2)C2C(=O)N(c3ccc4c(c3)OCCO4)C(=O)C21` (configuration not stated), the Potency is inactive: > 76.9 µM.

In the case of `Cc1cccc(-c2c3c(=O)n(C)c(=O)n(C)c3c3nnc4ccccc4n23)c1`, the Potency was inactive: > 76.9 µM.

Turning to `CCC1SC2=NC(C)=C(C(=O)OC)C(c3cccs3)N2C1=O` (configuration not stated), the Potency was inactive: > 76.9 µM.

As for `CCC(=O)N(Cc1ccco1)c1nc(-c2ccccc2)cs1`, the Potency was inactive: > 76.9 µM.

Turning to `Clc1ccc(-c2nc3nc4ccccc4nc3n2Cc2ccco2)cc1`, the Potency is inactive: > 76.9 µM.

Regarding `c1ccc2c(c1)N1CCN=C1N2CCN1CCCCC1`, the Potency was inactive: > 76.9 µM.

On to `O=C(O)CCNc1ccc2c(c1)OCCO2`, for which the Potency was inactive: > 76.9 µM.

On to `Nc1cc(Cl)ccc1Oc1ccccc1`, for which the Potency is inactive: > 76.9 µM.

As for `CCC(C)(C(=O)NC1CCCCC1)N(Cc1ccco1)C(=O)CNC(=O)c1ccccc1` (configuration not stated), the Potency was inactive: > 76.9 µM.

Consider `CCOC(=O)Cn1nnc(-c2cccc(OC)c2)n1`, for which the Potency was inactive: > 76.9 µM.

With `CC(=O)Nc1cccc(NC(=O)C2CCCN2C(=O)Nc2cccc(F)c2)c1` (configuration not stated), the Potency is inactive: > 76.9 µM.

Take `COc1cccc(-n2cnc3scc(-c4cccs4)c3c2=O)c1`: the Potency is inactive: > 76.9 µM.

Take `N#Cc1ccccc1Cn1c(=O)n(CCCC(=O)NCc2ccc3c(c2)OCO3)c(=O)c2ccccc21`: the Potency was inactive: > 76.9 µM.

On to `CN1CCN(c2ccc(NC(=O)c3ccccc3Br)cc2)CC1`, for which the Potency entry was “inactive”.

Regarding `COCCn1c(N2CCN(c3ccc(OC)cc3)CC2)nc2c1c(=O)[nH]c(=O)n2C`, the Potency was inactive: > 76.9 µM.

`CSc1nnc2c(n1)OC(C)N(C(=O)c1ccccc1)c1ccccc1-2` (configuration not stated): the Potency was inactive: > 76.9 µM.

`COc1ccc(N2CCN(C(=O)C(OC(C)=O)c3ccccc3)CC2)cc1` (configuration not stated): the Potency was inactive: > 76.9 µM.

On to `COc1ccc2c(c1)c(C(=O)CNc1nc(C)cs1)c(C)n2C`, for which the Potency is inactive: > 76.9 µM.

For `C=C(C)Cn1c(SCCCO)nc2c1c(=O)[nH]c(=O)n2C`, the Potency is inactive: > 76.9 µM.

As to `O=C(CN1CCN(CC(=O)Nc2ccc3c(c2)OCO3)CC1)Nc1ccc(F)cc1`, the Potency was inactive: > 76.9 µM.

On to `Cc1ccc(Cn2c(C)nc3c(c2=O)c2nc4ccccc4nc2n3Cc2ccco2)cc1`, for which the Potency is inactive: > 76.9 µM.

Take `Cc1cc(-n2c(C)cc(C(=O)COc3ccc4ccc(=O)oc4c3)c2C)no1`: the Potency was inactive: > 76.9 µM.

`CCOc1ccc(C)cc1S(=O)(=O)n1ccc(C)n1`: the Potency was inactive: > 76.9 µM.

In the case of `Cn1c(=O)c2c(nc(CN3CCOCC3)n2CC(O)CO)n(C)c1=O` (configuration not stated), the Potency is inactive: > 76.9 µM.

For `O=S(=O)(c1ccccc1)c1nc(-c2cccs2)oc1NCC1CCCO1` (configuration not stated), the Potency was inactive: > 76.9 µM.

Regarding `CCOCCCN1CC(C(=O)NCCc2ccccc2)CC1=O` (configuration not stated), the Potency was inactive: > 76.9 µM.

`CC(C)CCn1c(N2CCN(c3cccc(Cl)c3)CC2)nc2c1c(=O)[nH]c(=O)n2C`: the Potency was inactive: > 76.9 µM.

With `O=C(NCC1CCCO1)c1cc2ccccc2[nH]1` (configuration not stated), the Potency was inactive: > 76.9 µM.

`Cc1cc(C)nc(NS(=O)(=O)c2ccccc2)n1`: the Potency is inactive: > 76.9 µM.

Take `COc1ccccc1-c1ccc(C(=O)O)o1`: the Potency was inactive: > 76.9 µM.

For the compound `CCCOn1nnnc1-c1ccccc1`, the Potency was inactive: > 76.9 µM.

As for `c1coc(CNc2ncnc3sc4c(c23)CCCCC4)c1`, the Potency is inactive: > 76.9 µM.

Turning to `N#Cc1nc(Cc2cccc3ccccc23)oc1N1CCOCC1`, the Potency is inactive: > 76.9 µM.

Consider `Brc1ccc(CSc2nnc(-c3ccccn3)n2Cc2ccco2)cc1`, for which the Potency is inactive: > 76.9 µM.

Take `CCC(C)(C)n1nnnc1CN1CCSCC1`: the Potency was inactive: > 76.9 µM.

Turning to `CCc1[nH]nc2c1C(C(C)C)C(C#N)=C(N)O2` (configuration not stated), the Potency is inactive: > 76.9 µM.

`COc1cc(NC(=O)CN(c2ccc(C)cc2)S(=O)(=O)c2c(C)nn(C)c2C)cc(OC)c1`: the Potency was inactive: > 76.9 µM.

With `Cc1c(Cl)cccc1NC(=O)Cn1cccc1`, the Potency is inactive: > 76.9 µM.

As for `CCOC(=O)N1CCN(S(=O)(=O)c2cccc3cccnc23)CC1`, the Potency is inactive: > 76.9 µM.

For the compound `O=C(NCCCN1CCOCC1)c1ccc(CS(=O)(=O)Cc2ccccc2Cl)o1`, the Potency is inactive: > 76.9 µM.

Regarding `C1=CN2CCC1C(c1ccccc1)C2` (configuration not stated), the Potency is inactive: > 76.9 µM.

As for `c1ccc(N(c2ccccc2)c2nc(-n3ccnc3)nc(-n3ccnc3)n2)cc1`, the Potency was inactive: > 76.9 µM.

As to `O=C(Nc1cccc2ncccc12)c1ccc2c(c1)OCCO2`, the Potency was inactive: > 76.9 µM.

Regarding `CN1C(=S)SC(C)(C)C1/[N+]([O-])=C/c1cccnc1` (configuration not stated), the Potency is inactive: > 76.9 µM.

Turning to `COc1ccccc1-n1c(SCC(=O)Nc2ccc3c(c2)OCO3)nc2c(c1=O)SCC2`, the Potency was inactive: > 76.9 µM.

As to `O=c1c2ccccc2nc(SCc2cccc(F)c2)n1Cc1ccco1`, the Potency was inactive: > 76.9 µM.

With `COc1ccc(Cn2cccc(NC(=O)Nc3ccc(C#N)cc3)c2=O)cc1`, the Potency was inactive: > 76.9 µM.

The values are drawn from PubChem BioAssay AID360 (National Center for Advancing Translational Sciences (NCATS), 2006).
